From the supplement of paper PMC4604168 (melanoma cell lines)
The other results are listed elsewhere or left out. Single values are uncertain, as repeats are few or missing.

System: A2058
Experiment: cell count relative to DMSO control; melanoma cells; higher = more viable cells
Details: library dose: standard library concentration; 72 h
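Also: cells treated in 1,536-well plates, then fixed and DAPI-stained, with nuclei counted from automated high-throughput microscope images.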

Structure (SMILES) | cell count [%]
CCCCCCCCc1ccc(CCC(N)(CO)CO)cc1 [fingolimod] + C[C@]1(c2nc3c(C(N)=O)cccc3[nH]2)CCCN1 [Veliparib] (first compound 10 µM, partner dose 7 µM) | 6.47
CCCCCCCCc1ccc(CCC(N)(CO)CO)cc1 [fingolimod] + CN(c1ncccc1CNc1nc(Nc2ccc3c(c2)CC(=O)N3)ncc1C(F)(F)F)S(C)(=O)=O [PF562271] (first compound 10 µM, partner dose 0.4 µM) | 3.59
CC(C)(C)c1cnc(CSc2cnc(NC(=O)C3CCNCC3)s2)o1 + Cn1cncc1[C@@](N)(c1ccc(Cl)cc1)c1ccc2c(c1)c(-c1cccc(Cl)c1)cc(=O)n2C [tipifarnib] (first compound 0.05 µM, partner dose 0.05 µM) | 47
CCCCCCCCc1ccc(CCC(N)(CO)CO)cc1 [fingolimod] + NCC(=O)Nc1ccc(-n2nc(C(F)(F)F)cc2-c2ccc3c(ccc4ccccc43)c2)cc1 [OSU03012] (first compound 10 µM, partner dose 5 µM) | 2.08
CCCCCCCCc1ccc(CCC(N)(CO)CO)cc1 [fingolimod] + Cc1cc(N2CCOCC2)cc2[nH]c(-c3c(NC[C@@H](O)c4cccc(Cl)c4)cc[nH]c3=O)nc12 [BMS536924] (first compound 10 µM, partner dose 1 µM) | 4.27
NC(=O)c1ccc(N(C(N)=O)c2c(F)cccc2F)nc1-c1ccc(F)cc1F + CC(C)C[C@H](NC(=O)[C@H](Cc1ccccc1)NC(=O)c1cnccn1)B(O)O [Bortezomib] (first compound 2 µM, partner dose 0.005 µM) | 15.2
